According to the supplement of paper PMC3334620:
Over roughly 33,000 sequences, “E-score (-0.5 to 0.5)” has its median near -0.054; the highest 2% begin near 0.39. This is one part of the list.

Biological target: Ylr278c (UniProt Q05854)
Test: PBM E-score (8-mer binding enrichment) (E-score (-0.5 to 0.5)); higher = stronger / more preferred TF binding; most listed sequences are background and not binding sites
Details: protein concentration: 200 nM; construct: GST-DNA-binding domain
Summary of the method: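 Masliner-normalised scans of fluorescent anti-GST signal were the basis for scoring. That signal came from GST-tagged yeast transcription factors applied at about 100-200 nM to double-stranded universal all-10-mer Agilent arrays on fresh or once-stripped slides. Each ungapped eight-base word, pooled with its reverse complement, received an E-score from the Universal PBM Analysis Suite.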

In order of falling “PBM E-score” value:
1. AATCTCCG  0.484
2. TACTCCGA  0.479
3. CTCCGATC  0.46
4. CCACCGGA  0.455
5. AACCCGGA  0.435
6. GCCCGGAA  0.423
7. TCGGATAA  0.403
8. AAGGCCGA  0.4
9. CTTCGGAC  0.399
10. ACACTCCG  0.398
11. CCCTCGGA  0.394
12. CCGGGGGA  0.378
13. AGCCGGCG  0.372
14. CAGTCCGG  0.367
15. TCCGTAAA  0.357
16. ACCCCGGC  0.355
17. ACTGCCGG  0.352
18. CTCGGATC  0.34
19. GGGATCCC  0.325
20. TGCCGAAA  0.325
21. AGTTTCGG  0.311
22. CCGGTGCC  0.3
23. CGGCCTCC  0.298
24. GCGGCGAC  0.297
25. CCTGCGGA  0.257
26. ATTGCTCC  0.256
27. AATCACCG  0.251
28. GATAACGC  0.248
29. CCACCGCG  0.237
30. GAAACGCC  0.234
31. AGTTGCGC  0.233
32. GGGCAAAA  0.232
33. CATGCATC  0.207
34. AAACGGAC  0.197
35. CTCGGGGC  0.197
36. GGGGTTTA  0.179
37. CAAATCTC  0.169
38. CGTTATCC  0.169
39. GGATTGAA  0.161
40. CGATAACG  0.158
41. CTCGGCCC  0.148
42. CCGCTATA  0.145
43. CAGGCCGA  0.139
44. CTACGGTC  0.139
45. AGAATCCC  0.125
46. CCAAGTCC  0.116
47. CGAGAGTA  0.113
48. GAGGCATA  0.112
49. AATCGTCC  0.104
50. AGGAATAG  0.102
51. AGGATGGC  0.095
52. ATCGCTGC  0.0948
53. CCTGACCG  0.0942
54. CGGTGCGA  0.0833
55. GAATAGGC  0.0809
56. AAAACTTC  0.0738
57. CTTCTCAC  0.0661
58. AAATGGGT  0.0649
59. ACGCGGTA  0.0629
60. AAGGCGCC  0.0608
61. ATGGACGC  0.0575
62. CGCGAACG  0.0547
63. AGGCTATC  0.0535
64. GATCCTCA  0.0514
65. AATTCGAT  0.0514
66. GGGATGAA  0.0505
67. CGATGCCC  0.0482
68. AAAGATTT  0.0431
69. ATGCCATC  0.0419
70. AATTGGGT  0.0413
71. AAAGTATC  0.0379
72. ATGGATAG  0.0332
73. AGCGCTCG  0.0273
74. ACGGGCAT  0.0221
75. GAAGGTGA  0.02
76. CATTCGCC  0.0184
77. GAGCCTGC  0.0182
78. ACAACCAC  0.018
79. GCTGGAAA  0.0147
80. ATAAGATA  0.0111
81. AAGTTAGT  0.00861
82. CATTATAC  0.00842
83. ACCTAGCC  0.00188
84. AATTGGAA  -0.00019
85. CAGTTGCC  -0.00087
86. AGCAGACG  -0.00216
87. GGGGACAA  -0.00441
88. AAATCGAC  -0.00446
89. AGTAACAT  -0.005
90. GCGTTGGA  -0.00673
91. ACCTACGC  -0.00943
92. ATTGGAGA  -0.0108
93. CCAGACGG  -0.0129
94. AAACGCTC  -0.0138
95. AAGTAACG  -0.0211
96. ATCGCCTC  -0.0212
97. CGCTGCCA  -0.0216
98. ACAACGAT  -0.0259
99. ACCAAAAT  -0.0259
100. GTATGAAA  -0.026
101. AGAGGTTA  -0.0284
102. AGTTGGTG  -0.0285
103. CCTCGCAC  -0.0346
104. CAGAGTGA  -0.0361
105. CAACTCTG  -0.0365
106. CCTCATAA  -0.0385
107. TGATACCA  -0.0454
108. GTATAGCA  -0.0478
109. CGCTGGCC  -0.0482
110. CGACCCAG  -0.05
111. TACGTCGA  -0.0509
112. ATTATGGA  -0.0518
113. CTCATTCA  -0.0537
114. CAGATACA  -0.0537
115. AACAGACC  -0.0625
116. AGTGCTTC  -0.0643
117. CAACATCA  -0.0651
118. CAAACGTC  -0.0656
119. GCACAACC  -0.0662
120. ATGCCAGC  -0.0673
121. CTGATCTC  -0.0675
122. GAATACGA  -0.0699
123. AATAGGAA  -0.0713
124. GATGAGGA  -0.0716
125. GCATATAC  -0.0784
126. AAATCATT  -0.0803
127. CATTTCAA  -0.0817
128. AGCTGACC  -0.0832
129. ACTCTGGG  -0.0835
130. CCCCTGCC  -0.086
131. AGTATAAG  -0.0883
132. AACAGGGT  -0.0893
133. AACTACTG  -0.0935
134. CGTAGCAC  -0.0954
135. GTACTCAA  -0.097
136. AAACCGTT  -0.0983
137. ACCCTACT  -0.0984
138. AGACAGGA  -0.101
139. CTGGGATC  -0.101
140. GAGAGATC  -0.102
141. CAAGCTGA  -0.104
142. AGGCGTTC  -0.11
143. GATGTTGA  -0.114
144. GTAGCCAA  -0.117
145. AGCATGAT  -0.122
146. AACTCGAT  -0.122
147. ACAACTCA  -0.123
148. ATGCAATG  -0.125
149. CAGTCTCA  -0.126
150. CCAGTGAG  -0.126
151. TACACCTA  -0.127
152. CACAACAC  -0.132
153. GTAGGCGA  -0.134
154. ATGAGCCC  -0.138
155. CTTAAGAA  -0.14
156. CATAGGCG  -0.14
157. CTAACATC  -0.142
158. AGCATTAC  -0.149
159. ATAGACAA  -0.151
160. ATCATTGC  -0.153
161. CGACAGTC  -0.154
162. AGCAGCTG  -0.154
163. ACATGGCT  -0.162
164. AAGGGGCA  -0.163
165. ACGTTTAT  -0.164
166. AGGCTGTG  -0.168
167. CTTCCTTA  -0.169
168. TAAAGCCA  -0.169
169. ACACGACA  -0.171
170. CTCATTGA  -0.173
171. AGACAAGC  -0.177
172. ACAAGGCT  -0.178
173. CTCCATTC  -0.178
174. CAGAATAG  -0.179
175. AAAAGGGT  -0.18
176. CCAGAGAG  -0.181
177. GTCTTTGA  -0.182
178. ACGTCCTG  -0.186
179. CCTTCCAA  -0.186
180. GAACGCTA  -0.191
181. GCTAGAGC  -0.192
182. ACTCACAG  -0.196
183. CACAGTAC  -0.198
184. ATTCGAGC  -0.201
185. CCCTTTTC  -0.201
186. CCTGTCCA  -0.204
187. GGGGGTAA  -0.206
188. TGCAGCAA  -0.208
189. TCTGACCA  -0.209
190. AAACGATC  -0.21
191. ATGGATTA  -0.21
192. GCAGGGAC  -0.211
193. CACGAGTA  -0.212
194. TCGATGCA  -0.216
195. CTCAAGTA  -0.216
196. ATCGCCCA  -0.22
197. TATAGACA  -0.22
198. AGACGTAG  -0.223
199. CCACGATC  -0.226
200. ACAGGGTA  -0.227
201. CAGTGTGC  -0.227
202. ATAAACCA  -0.228
203. GTTCAGTA  -0.228
204. AGGGCACA  -0.231
205. CCCTGTGC  -0.232
206. GAGGCATC  -0.234
207. TCATGTCA  -0.237
208. ACTACTGA  -0.241
209. ACGTGGGA  -0.252
210. TAGGTACA  -0.26
211. TCACATGA  -0.274
212. CTGACGTC  -0.287
213. AGGCCAGC  -0.295
214. CCAGCCTC  -0.302
215. AAGACCAC  -0.308
216. TGCCTGAA  -0.315
217. GTAGAGCA  -0.323
218. GGGGGGGA  -0.333
219. ACCCCCCC  -0.362
